Structures are written as SMILES. Some of the results follow. Single values are uncertain, as repeats are few or missing.

Some test systems named below: A101D; A2058; A375.
What all share (test): cell count relative to DMSO control; melanoma cells; higher = more viable cells
Holding throughout (conditions): library dose: standard library concentration; 72 h
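Further: cells treated in 1,536-well plates, then fixed and DAPI-stained, with nuclei counted from automated high-throughput microscope images.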

For `Cc1cc(Nc2cc(N3CCN(C)CC3)nc(Sc3ccc(NC(=O)C4CC4)cc3)n2)n[nH]1` [Tozasertib] + NC(=O)Nc1cc(-c2cccc(F)c2)sc1C(=O)N[C@H]1CCCNC1 [AZD7762] (first compound 0.03 µM, partner dose 0.1 µM), the cell count in the test with A101D turned out to be 62%; with A2058, 72.8%; in the test with A375, 46.4%.

As for `Cc1cc(Nc2cc(N3CCN(C)CC3)nc(Sc3ccc(NC(=O)C4CC4)cc3)n2)n[nH]1` [Tozasertib] + O=C(Nc1cc(C(F)(F)F)cc(C(F)(F)F)c1)c1cc(Cl)ccc1O [IMD0354] (first compound 0.03 µM, partner dose 0.08 µM), the figures for the cell count in the test on A101D, with A2058 and in the test on A375 were 67.7%, 85.1% and 70%, respectively.

For `N#CC[C@H](C1CCCC1)n1cc(-c2ncnc3[nH]ccc23)cn1` [ruxolitinib] + O=C(O)[C@@H]1[O][Sb](=[O])([O][Sb]2(=[O])[O][C@H]([C@H](O)CO)[C@H](O)[C@H](C(=O)O)[O]2)[O][C@H]([C@H](O)CO)[C@@H]1O [stibogluconate] (first compound 5 µM, partner dose 10 µM), the cell count was 104% with A101D, 83.4% in the test with A2058 and 129% with A375.

On to `CC[C@]1(O)C[C@H]2CN(CCc3c([nH]c4ccccc34)[C@@](C(=O)OC)(c3cc4c(cc3OC)N(C=O)[C@H]3[C@@](O)(C(=O)OC)[C@H](OC(C)=O)[C@]5(CC)C=CCN6CC[C@]43[C@@H]65)C2)C1` [vincristine] + CS(=O)(=O)c1ccc(C(=O)Nc2ccc(Cl)c(-c3ccccn3)c2)c(Cl)c1 [vismodegib] (first compound 0.0005 µM, partner dose 5 µM), for which the cell count with A101D was determined as 54.2%; with A2058, 69.2%; in the test with A375 it was 92%.

Regarding `N#CC[C@H](C1CCCC1)n1cc(-c2ncnc3[nH]ccc23)cn1` [ruxolitinib] + C=CCNC1=C2C[C@@H](C)C[C@H](OC)[C@H](O)[C@@H](C)/C=C(\C)[C@H](OC(N)=O)[C@@H](OC)/C=C\C=C(/C)C(=O)NC(=CC1=O)C2=O [Tanespimycin] (first compound 5 µM, partner dose 0.01 µM), the results for the cell count in the test with A101D, with A2058 and with A375 were 77.7%, 56.8% and 170%, respectively.

Consider `N#CC[C@H](C1CCCC1)n1cc(-c2ncnc3[nH]ccc23)cn1` [ruxolitinib] + Clc1ccc(Nc2nnc(Cc3ccncc3)c3ccccc23)cc1 [vatalanib] (first compound 5 µM, partner dose 10 µM), for which the results for the cell count with A101D, in the test on A2058 and in the test with A375 were 95%, 49.1% and 98.6%, respectively.

Consider `N#CC[C@H](C1CCCC1)n1cc(-c2ncnc3[nH]ccc23)cn1` [ruxolitinib] + C[C@@H](N)c1ccc(C(=O)Nc2ccnc3[nH]ccc23)cc1 [RKI983] (first compound 5 µM, partner dose 2 µM), for which the cell count in the test on A101D came out at 78.3%; with A2058, 54.6%; with A375, 119%.

Source of the values: the supplement of paper PMC4604168 (melanoma cell lines).
